# Laboratory results from PMC9911399, “Two distinct binding modes provide the RNA-binding protein RbFox with extraordinary sequence specificity”.
# Positions count from the first letter of the chain named. The list shows a part of the results.
# T1: RBFOX1 RRM RbFoxmut (Fox-RRM*) (Homo sapiens, UniProt Q9NWB1 109-208, R118D;E147R;N151S;E152T)
# T1 sequence: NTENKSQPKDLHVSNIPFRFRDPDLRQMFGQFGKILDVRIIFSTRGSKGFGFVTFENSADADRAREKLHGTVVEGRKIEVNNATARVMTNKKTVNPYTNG
# B1: CAAUGAG (DNA:RNA)
# RNA: GGGAGACCGGAAUUCAGAUUGUCCCAAUGAGUUAAAUCCCGUCGUAGCCACCA
# DNA 1: CAATCTGAATTCCGGTCTCCC
# DNA 2: TGGTGGCTACGACGGGATT
# B2: UGCUAGG (DNA:RNA)
# RNA: B1 RNA with C25U, A26G, A27C, G29A, A30G
# DNA 1: CAATCTGAATTCCGGTCTCCC
# DNA 2: TGGTGGCTACGACGGGATT
# B3: UGUUCUG (DNA:RNA)
# RNA: B1 RNA with C25U, A26G, A27U, G29C, A30U
# DNA 1: CAATCTGAATTCCGGTCTCCC
# DNA 2: TGGTGGCTACGACGGGATT
# B4: UACGCCA (DNA:RNA)
# RNA: B1 RNA with C25U, A27C, U28G, G29C, A30C, G31A
# DNA 1: CAATCTGAATTCCGGTCTCCC
# DNA 2: TGGTGGCTACGACGGGATT
# B5: GCGUGCU (DNA:RNA)
# RNA: B1 RNA with C25G, A26C, A27G, A30C, G31U
# DNA 1: CAATCTGAATTCCGGTCTCCC
# DNA 2: TGGTGGCTACGACGGGATT
# B6: AGCUGAC (DNA:RNA)
# RNA: B1 RNA with C25A, A26G, A27C, G31C
# DNA 1: CAATCTGAATTCCGGTCTCCC
# DNA 2: TGGTGGCTACGACGGGATT
# B7: CCGUCUA (DNA:RNA)
# RNA: B1 RNA with A26C, A27G, G29C, A30U, G31A
# DNA 1: CAATCTGAATTCCGGTCTCCC
# DNA 2: TGGTGGCTACGACGGGATT
# B8: GACAUAU (DNA:RNA)
# RNA: B1 RNA with C25G, A27C, U28A, G29U, G31U
# DNA 1: CAATCTGAATTCCGGTCTCCC
# DNA 2: TGGTGGCTACGACGGGATT
# B9: GCACCCC (DNA:RNA)
# RNA: B1 RNA with C25G, A26C, U28C, G29C, A30C, G31C
# DNA 1: CAATCTGAATTCCGGTCTCCC
# DNA 2: TGGTGGCTACGACGGGATT
# B10: GUGCCCC (DNA:RNA)
# RNA: GGGAGACCGGAAUUCAGAUUGUCCGUGCCCCUUAAAUCCCGUCGUAGCCACCA
# DNA 1: CAATCTGAATTCCGGTCTCCC
# DNA 2: TGGTGGCTACGACGGGATT
# B11: AGGUCCU (DNA:RNA)
# RNA: B10 RNA with G25A, U26G, C28U, C31U
# DNA 1: CAATCTGAATTCCGGTCTCCC
# DNA 2: TGGTGGCTACGACGGGATT
# B12: CGUUGAG (DNA:RNA)
# RNA: B1 RNA with A26G, A27U
# DNA 1: CAATCTGAATTCCGGTCTCCC
# DNA 2: TGGTGGCTACGACGGGATT
# B13: CCGUCCC (DNA:RNA)
# RNA: B10 RNA with G25C, U26C, C28U
# DNA 1: CAATCTGAATTCCGGTCTCCC
# DNA 2: TGGTGGCTACGACGGGATT
# B14: UACUCUU (DNA:RNA)
# RNA: B1 RNA with C25U, A27C, G29C, A30U, G31U
# DNA 1: CAATCTGAATTCCGGTCTCCC
# DNA 2: TGGTGGCTACGACGGGATT
# B15: GUGUCGU (DNA:RNA)
# RNA: B10 RNA with C28U, C30G, C31U
# DNA 1: CAATCTGAATTCCGGTCTCCC
# DNA 2: TGGTGGCTACGACGGGATT
# B16: AAAUAAC (DNA:RNA)
# RNA: B1 RNA with C25A, G29A, G31C
# DNA 1: CAATCTGAATTCCGGTCTCCC
# DNA 2: TGGTGGCTACGACGGGATT
# B17: UCCACAG (DNA:RNA)
# RNA: B1 RNA with C25U, A26C, A27C, U28A, G29C
# DNA 1: CAATCTGAATTCCGGTCTCCC
# DNA 2: TGGTGGCTACGACGGGATT
# B18: CUCAACU (DNA:RNA)
# RNA: B10 RNA with G25C, G27C, C28A, C29A, C31U
# DNA 1: CAATCTGAATTCCGGTCTCCC
# DNA 2: TGGTGGCTACGACGGGATT
# B19: UCUAGGG (DNA:RNA)
# RNA: B1 RNA with C25U, A26C, A27U, U28A, A30G
# DNA 1: CAATCTGAATTCCGGTCTCCC
# DNA 2: TGGTGGCTACGACGGGATT
# B20: GAGAGUC (DNA:RNA)
# RNA: B10 RNA with U26A, C28A, C29G, C30U
# DNA 1: CAATCTGAATTCCGGTCTCCC
# DNA 2: TGGTGGCTACGACGGGATT
# Biological target: T1, RBFOX1 RRM RbFoxmut (Fox-RRM*)
# Experiment: EMSA; HiTS-Eq, 1 nM pool, 10 min; buffer printed only for the single-RNA assays: 10 mM Tris pH 7.5, 150 mM NaCl, 3.4 mM EDTA, 0.001% NP-40, 30 C
# Conditions: tags: His6 N-terminal (pET28a); label: 5' 32P
# Summary of the method: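 Purified RbFox RRM, wild type or mutant, was incubated for 10 min in 50 µL with 1 nM of a 5′-radiolabelled RNA pool carrying 7 randomized nucleotides, whose flanks were annealed to DNA oligonucleotides, over a series of increasing protein concentrations. Unbound RNA was resolved on 8% native PAGE, cut out, reverse-transcribed, barcoded by PCR and sequenced on an Illumina HiSeq 2500. Relative association constants were derived from changes in read counts for each RNA species versus the control reaction and normalised to the cognate motif.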
row,Binder,binding signal
1,B1,0.103 KA relative to UGCAUGU
2,B2,0.0839 KA relative to UGCAUGU
3,B3,0.165 KA relative to UGCAUGU
4,B4,0.112 KA relative to UGCAUGU
5,B5,0.0932 KA relative to UGCAUGU
6,B6,0.109 KA relative to UGCAUGU
7,B7,0.0866 KA relative to UGCAUGU
8,B8,0.107 KA relative to UGCAUGU
9,B9,0.0363 KA relative to UGCAUGU
10,B10,0.0593 KA relative to UGCAUGU
11,B11,0.0545 KA relative to UGCAUGU
12,B12,0.111 KA relative to UGCAUGU
13,B13,0.039 KA relative to UGCAUGU
14,B14,0.0723 KA relative to UGCAUGU
15,B15,0.164 KA relative to UGCAUGU
16,B16,0.0842 KA relative to UGCAUGU
17,B17,0.0955 KA relative to UGCAUGU
18,B18,0.104 KA relative to UGCAUGU
19,B19,0.0945 KA relative to UGCAUGU
20,B20,0.0957 KA relative to UGCAUGU
